From PubChem BioAssay AID686978 (National Center for Advancing Translational Sciences (NCATS), 2013)
Values joined by “and” are separate entries in the source; they are usually repeats but may differ in a detail not shown here. Identical values can stand only once. Screen size: about 420,000 compounds; about 64,000 (15%) were called active. This list was built around the results that the source calls inconclusive (neither active nor inactive); the mix of calls is not that of the screen. Calls come from the whole dose curve; as a rule, active = well fitted inhibition curve with a large enough effect; inconclusive = small, poorly fitted or top-dose-only effect; inactive = flat fitted curve, though single readings scatter. Potencies beside an inconclusive call are fits to weak or partial responses and may not hold up.

test: qHTS for Inhibitors of human tyrosyl-DNA phosphodiesterase 1 (TDP1): qHTS in cells in absence of CPT; settings: DT40 Tdp1-/- hTDP1 cells, no CPT, ATP luminescence, 48 h; activity change, negative = growth inhibition: at 46.2 µM (top of the series) unless noted; note: nearly all actives have a fitted effect of over 55% in size
Outline: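 A cellular qHTS used chicken DT40 cells lacking endogenous Tdp1 but carrying stably transfected human TDP1. Compounds were applied without camptothecin, and cell growth kinetics were judged by ATP-dependent luminescence after ≥48 hr.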
% is set by controls: 0 for no effect and ±100 for the full control effect; potency is the fitted concentration of half-maximal effect; tags give direction and shape of the fitted curve.

SMILES	Potency	activity change, negative = growth inhibition
COc1ccccc1CNC(=O)c1cc2c(s1)-c1ccccc1OC2	inconclusive: 20.6 µM [inhibitor, single point]	–
C=CCOc1ccc(CN(C)C(=O)c2ccc(CNS(=O)(=O)c3ccc(C)c(C)c3)cc2)cc1	active: 20.6 µM	–
NCCCC[C@H](N)c1nnc([C@H](CCC(=O)O)NC(=O)C2CCNCC2)o1	inactive	–
COc1ccc(S(=O)(=O)N2C[C@H]3CON(C)[C@H]3C[C@H]2c2ccc(-c3cc4ccccc4o3)cc2)cc1	inconclusive: 16.4 µM [inhibitor, partial curve, poor fit]	–
CN(C(=O)COC(=O)/C=C/c1ccccc1[N+](=O)[O-])c1ccccc1	inactive	–
CCCn1c(=O)n(C)c(=O)c2c(SCC(=O)NCc3ccco3)nc(C3CC3)nc21	inconclusive: 29.1 µM [inhibitor, single point]	–
COc1cccc(CN2CCN(Cc3cccc4c3OCO4)CC2CCO)c1 (stereo not given)	inconclusive: 20.6 µM [inhibitor, single point]	–
COc1ccccc1N(Cc1ccccc1)S(=O)(=O)c1cccc(C(=O)Nc2cccc(C)n2)c1	inconclusive: 23.1 µM [inhibitor, single point]	–
COc1ccc2c(c1)-c1nc(-n3ncc(C(=O)NCC4CCCN(C)C4)c3C3CC3)ncc1CC2 (stereo not given)	inactive	–
COCCNC(=O)Cn1c(=O)n(CCCCCC(=O)Nc2ccccc2)c(=O)c2sccc21	inconclusive: 5.8 µM [inhibitor, full curve, poor fit]	–
CCc1ccc(C2=CSC3=NCCN23)cc1	inconclusive: 0.58 µM [inhibitor, full curve, poor fit]	–
CC(C)(C)Cc1c(-c2ccc(Cl)cc2)nc2ccc(Cl)cn12	inconclusive: 18.4 µM [inhibitor, single point]	–
COc1ccc(Cn2nnnc2C(c2cccs2)N2CCN(c3ccc([N+](=O)[O-])cc3)CC2)cc1 (stereo not given)	inconclusive: 6.51 µM [inhibitor, partial curve]	–
COc1ccc(/C=C(\C#N)c2nc3ccccc3n2C)c(OC)c1	inconclusive: 16.4 µM [inhibitor, partial curve, poor fit]	–
CC1CCc2cc(F)ccc2N1C(=O)CSc1nnc2c(n1)[nH]c1ccccc12 (stereo not given)	inconclusive: 20.6 µM [inhibitor, single point]	–
Cc1ccc(Nc2nnc(SCC3CCCCO3)s2)cc1 (stereo not given)	inconclusive: 13 µM [inhibitor, single point]	–
CC(C)Cc1nnc(NC(=O)CCC(=O)N2CCN(c3ccc([N+](=O)[O-])cc3)CC2)s1	active: 18.4 µM	–
CCOCCCN(Cc1ccco1)C(=O)c1cc2c(=O)[nH]c3ccc(C)cc3c2s1	active: 11.6 µM	–
O=S(=O)(c1ccccc1)n1ccc(-c2cnc(-c3ccccc3)s2)n1	inconclusive: 29.1 µM [inhibitor, single point]	–
O=C(O)c1cccc(-n2cccc2C=C2C(=O)c3ccccc3C2=O)c1	inactive	–
O=C(CSc1nnnn1-c1cccnc1)Nc1ccc(F)cc1F	inactive	–
CCOC(=O)CC1(C)NC(=O)c2c(C)sc(C(=O)OCC)c2N1 (stereo not given)	inconclusive: 25.9 µM [inhibitor, single point]	–
CCCn1ncc(/C=N/O)c1C	inconclusive: 16.4 µM [inhibitor, single point]	–
CCOC(=O)N1CCN(C(=O)CNC(=O)c2nn(-c3ccc(OC)cc3)c(=O)c3ccccc23)CC1	inconclusive: 32.6 µM [inhibitor, partial curve]	–

SMILES	Potency	activity change, negative = growth inhibition
CC(=O)c1ccc(NC(=O)c2cccc(S(=O)(=O)N3CCN(C)CC3)c2)cc1	inconclusive: 29.1 µM [inhibitor, single point]	–
COc1ccc(-c2cn3c(n2)sc2cc(C(=O)NCCc4ccc(OC)cc4OC)ccc23)cc1	active: 9.2 µM	–
CCc1ccc2c(c1)-c1ccccc1S(=O)(=O)N2CC(=O)N1CCCCC1	inconclusive: 29.1 µM [inhibitor, single point]	–
COc1cccc(NC(=O)c2cnc(SCC(=O)N3CCOCC3)n(C)c2=O)c1	active: 14.6 µM	–
O=C(CSc1ccc2c(c1)OCCO2)Nc1ccc2c(c1)OCO2	inconclusive: 18.4 µM [inhibitor, single point]	–
C[C@H](CO)N1C[C@H](C)[C@@H](CN(C)S(=O)(=O)c2ccccc2)Oc2c(cccc2N(C)C)C1=O	inconclusive: 14.6 µM [inhibitor, partial curve]	–
COc1ccc(NC(=O)C(=O)N/N=C/c2cc(C)n(-c3cccc(Cl)c3Cl)c2C)c(OC)c1	inconclusive: 8.2 µM [inhibitor, partial curve]	–
O=C(NCc1cccnc1)C1CC(c2ccccc2O)=NO1 (stereo not given)	inactive	–
CCCS(=O)(=O)NCc1c(C)ncc2c1CCN(C(=O)c1c(F)ccc(F)c1F)C2	inactive	–
COc1ccc(NC(=O)C#Cc2ccccc2)cc1OC	inconclusive: 23.1 µM [inhibitor, single point]	–
CC(C)C(C)(C#N)NC(=O)CSc1nc2scc(-c3ccccc3)c2c(=O)[nH]1 (stereo not given)	inactive	–
Cc1cccc(Oc2ccc(C(=O)NC3CCSC3=O)cn2)c1C (stereo not given)	–	inconclusive: -33.6% [inhibitor]
O=c1/c(=C/c2ccccn2)sc2n1CN(c1ccccc1)CN=2	inconclusive: 10.3 µM [inhibitor, partial curve]	–
O=C(CSc1nnc(CNC(=O)c2c(F)cccc2Cl)o1)NCc1ccc(F)cc1	inactive	–
CCc1ccc(CNC(=O)c2c(C)oc3ncn(CC(C)C)c(=O)c23)cc1	active: 16.4 µM	–
CCOC(=O)c1c(-c2ccc(OC)cc2)oc2ccc(OCC(N)=O)cc12	inactive	–
Cn1cc(Cc2ccccc2)c(=O)c(Cc2ccccc2)c1	inactive	–
Cc1csc(NC(=O)c2ccc(C)s2)n1	inactive	–
CC1=NNC(=O)C1CCC(=O)N/N=C\c1cccc(Cl)c1 (stereo not given)	inactive	–
NC(=S)NN=C(c1ccc(Br)cc1)C1CC1	inconclusive: 29.1 µM [inhibitor, single point]	–
CN(C/C=C/c1ccccc1)Cc1cccc2ccccc12	inconclusive: 29.9 µM [inhibitor, single point] and inconclusive: 18.4 µM [inhibitor, partial curve]	–
CCOC(=O)C1CCN(C(=O)Nc2ccc(OC(F)(F)F)cc2)CC1	inconclusive: 29.1 µM [inhibitor, single point]	–
O=C(NCCCc1nc2ccccc2n1Cc1ccc(Cl)cc1Cl)c1ccco1	inconclusive: 18.4 µM [inhibitor, single point]	–
Nn1c(SCc2cc([N+](=O)[O-])cc3c2OCOC3)nnc1-c1cccnc1	inactive	–

SMILES	Potency	activity change, negative = growth inhibition
O=Cc1c(NCCCN2CCCC2=O)c2ccccc2[nH]c1=O	inactive	–
Cc1ccc(CNC(=O)c2cc(-c3ccccc3C)n(CC3CC(c4cccc([N+](=O)[O-])c4)=NO3)n2)cc1 (stereo not given)	inconclusive: 16.4 µM [inhibitor, partial curve]	–
C=CCN(CC=C)C(=O)C(=O)c1ccn(-c2c(C)csc2C(=O)OC)c1	inconclusive: 6.51 µM [inhibitor, full curve]	–
O=C(c1ccccc1)c1nc2ccccc2n(CCCn2c(=O)c(C(=O)c3ccccc3)nc3ccccc32)c1=O	inactive	–
COc1cc(C(=O)N/N=C/c2ccc(OC(=O)c3cccc(C)c3)cc2)ccc1O	inactive	–
C=CCn1c(SCC(=O)Nc2nc3ccccc3s2)nc(O)c(CC)c1=O	inactive	–
COc1ccc(CNC(=O)CCCn2c(=O)c3cccn3c3cccnc32)cc1	inconclusive: 29.1 µM [inhibitor, single point] and inconclusive: 11.6 µM [inhibitor, partial curve]	–
CCCSCCCNC(=O)Cn1cc2c(n1)CCCCC2	inconclusive: 14.6 µM [inhibitor, partial curve]	–
O=C(CCc1nc2ccccc2[nH]1)N1CCN(C(=O)c2ccco2)CC1	inactive	–
CCCn1c(C(O)c2ccc(C)cc2)nc2ccccc21 (stereo not given)	inconclusive: 23.1 µM [inhibitor, single point]	–
Cc1c(C(C)CCCO)oc(=O)c2c1Oc1c(C)c(C(C)C[C@H](C)O)oc(=O)c1C2 (stereo not given in full)	inconclusive: 23.1 µM [inhibitor, single point]	–
Cn1cccc1C(=O)N1CCC2(CC1)CCN(c1ccncc1)CC2	inconclusive: 25.9 µM [inhibitor, single point]	–
Cc1[nH]c2ccccc2c1-c1csc(NC(=O)CN2CCOCC2)n1	inconclusive: 16.4 µM [inhibitor, single point]	–
COc1ccc(CCNC(=O)COc2cc(C)cc3oc(=O)c(C)c(C)c23)cc1OC	inactive	–
CC(C)c1ccc(OCC(O)CN2CCN(c3ccc(F)cc3)CC2)cc1 (stereo not given)	inconclusive: 29.1 µM [inhibitor, single point]	–
CC(C)NC(=O)c1cn(C2CCCN(C(=O)c3cc4ccccc4oc3=O)C2)nn1 (stereo not given)	inactive	–
C=C(NS(=O)(=O)c1ccc(C)cc1)C(=O)OC	inactive	–
COc1ccccc1NC(=O)C(=O)NCCC1CCCCN1S(=O)(=O)c1cccs1 (stereo not given)	active: 18.4 µM	–
CCOCCCNC(=O)c1c(NC(=O)Cc2coc3ccc(C)cc23)sc2c1CCC2	inconclusive: 23.1 µM [inhibitor, single point]	–
O=C(COC(=O)Cn1[nH]c(=O)c2ccccc2c1=O)NNC(=O)c1ccccc1	inactive	–
O=S(=O)(c1cccc(F)c1)N1CCC(Oc2ccc(-n3cnnn3)cc2)CC1	active: 14.6 µM	–
COc1ccc(C(=O)OC(C)C(=O)NC2CCCCC2C)cc1S(=O)(=O)N1CCOCC1 (stereo not given)	inactive	–
